Results as given in PubChem BioAssay AID1030 (National Center for Advancing Translational Sciences (NCATS), 2008).
Screen size: about 220,000 compounds; about 16,000 (7.3%) were called active. Inconclusive results, whose numbers are uncertain, are shown with a selection of clear calls. The call rests on the fitted dose curve; in most records, active means well fitted inhibition curve with a large enough effect (not every such curve was filed as active); inconclusive means small, poorly fitted or top-dose-only effect, or another doubt; inactive means no such curve, though single readings can be large or run the other way. No potency is given beside an inconclusive call; the fits are too rough.
Potency means the concentration at half of the fitted maximal effect; tags describe the fitted curve by direction and shape.

The compounds below were run against Aldehyde dehydrogenase 1A1 (Homo sapiens) (UniProt P00352) (assay: qHTS Assay for Inhibitors of Aldehyde Dehydrogenase 1 (ALDH1A1)). Conditions: Purified ALDH1A1, NADH fluorescence, propionaldehyde substrate; series mostly up to 75.3 µM.
Sequence of UniProt P00352 (P00352 whole entry, looked up): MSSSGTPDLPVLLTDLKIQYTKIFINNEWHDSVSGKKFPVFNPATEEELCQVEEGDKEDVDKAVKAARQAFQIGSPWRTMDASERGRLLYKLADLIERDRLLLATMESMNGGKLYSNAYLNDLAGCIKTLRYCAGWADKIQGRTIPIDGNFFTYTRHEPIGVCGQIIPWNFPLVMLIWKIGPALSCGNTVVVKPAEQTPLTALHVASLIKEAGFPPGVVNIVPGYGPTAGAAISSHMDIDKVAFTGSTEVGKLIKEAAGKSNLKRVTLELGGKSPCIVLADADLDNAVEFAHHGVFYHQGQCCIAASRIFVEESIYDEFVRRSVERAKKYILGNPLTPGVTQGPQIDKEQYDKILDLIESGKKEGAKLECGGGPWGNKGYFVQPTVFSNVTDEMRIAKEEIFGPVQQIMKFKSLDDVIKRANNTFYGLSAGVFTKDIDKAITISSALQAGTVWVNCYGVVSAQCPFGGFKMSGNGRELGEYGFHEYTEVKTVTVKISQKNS
In the case of CCOC(=O)c1c(-c2ccc(C)cc2)csc1NC1=NS(=O)(=O)c2ccccc21, the Potency is reported as inconclusive [inhibitor, partial curve].
COc1ccc(-c2cc(C(=O)NCc3ccco3)no2)cc1OC was tested, and the Potency was “inactive”.
With COCCN(C(=S)Nc1ccc(C)c(C)c1)C(C)c1ccco1 (stereo unspecified) the Potency was “inactive”.
For COc1ccc(/C=N/NC(=O)c2ccc(CN3c4cccc5cccc(c45)S3(=O)=O)cc2)cc1, the Potency was inconclusive [inhibitor, partial curve].
Cc1cc(C)c(C#N)c(N2CCC(C(N)=O)CC2)n1 was tested, and the Potency was inconclusive [inhibitor, single point].
For Cc1ccc2cc(CN(Cc3ccco3)C(=S)NCC3CCCO3)c(=O)[nH]c2c1C (stereo unspecified), the Potency was inconclusive [inhibitor, single point].
O=C(COc1ccccc1)Nc1nnc(-c2ccco2)o1 was tested, and the Potency was inconclusive [inhibitor, single point].
For O=C(NCc1ccccc1Cl)C1CCN(S(=O)(=O)N2CCCCC2)CC1, the Potency was inconclusive [inhibitor, partial curve].
With COCc1cc(C2C(C(=O)c3ccco3)=C(O)C(=O)N2CCOCCO)ccc1O (stereo unspecified) the Potency was inconclusive [inhibitor, single point].
For CC(C)[C@@H](CC(=O)N[C@@H]1CCCC[C@H]1C(=O)N[C@H](CC(=O)N[C@@H](CCC(=O)O)CC(=O)O)Cc1ccccc1)NC(=O)C[C@H](Cc1c[nH]c2ccccc12)NC(=O)[C@@H]1CCCC[C@H]1N, the Potency was inconclusive [inhibitor, single point].
For COc1cccc(CN(C(=O)Cc2c[nH]c3ccccc23)C(C(=O)NC2CCCCC2)c2ccc(C)o2)c1 (stereo unspecified), the Potency was inconclusive [inhibitor, single point].
O=C(NCCCO)C(=O)NCCc1ccc(Cl)cc1 was tested, and the Potency was “inactive”.
With O=C(O)/C=C\C(=O)NNC(=O)c1cc(-c2ccccc2)n[nH]1 the Potency was active: 25.1 µM.
With Cc1ccccc1NC(=O)C1Cc2ccccc2C(=O)O1 (stereo unspecified) the Potency was inconclusive [inhibitor, single point].
O=C(NC(=O)N1CCN(c2ccc(F)cc2)CC1)c1ccccc1 was tested, and the Potency was “inactive”.
For COC(=O)c1sc2nc3c(cc2c1N)CCCC3, the Potency was inconclusive [inhibitor, partial curve, poor fit].
With COc1cccc(NC(=O)c2ccc(-c3ccc([N+](=O)[O-])cc3)o2)c1 the Potency was inconclusive [inhibitor, single point].
CC(C)Oc1ccc(Cn2c(-c3ccco3)n[nH]c2=S)cc1 was tested, and the Potency was inconclusive [inhibitor, single point].
For CC1CCc2c(sc3ncnc(NS(=O)(=O)c4cccs4)c23)C1 (stereo unspecified), the Potency was inconclusive [inhibitor, single point].
With CC(=O)N1CCN(Cc2nc3cc(NC(=O)Nc4ccccc4)ccc3n2C)CC1 the Potency was inconclusive [inhibitor, single point].
Fc1ccccc1N1CCN(C(c2ccccn2)c2nnnn2C2CCCCC2)CC1 (stereo unspecified) was tested, and the Potency was inconclusive [inhibitor, single point].
For O=C(CNC(=O)/C=C/c1ccccc1)N=Nc1c(O)n(Cc2ccccc2)c2ccccc12, the Potency was active: 3.55 µM.
For COc1cccc2cc(C(=O)N3CCC(C)CC3)c(=O)oc12, the Potency was inconclusive [inhibitor, single point].
With CCCCN(CC)CCCNC(=O)c1cc2cc3ccc(OC)cc3nc2o1 the Potency was inconclusive [inhibitor, partial curve].
For COc1cc(C2C(C#N)=C(N)Oc3cc(C)n(CC4CCCO4)c(=O)c32)cc2c1OCO2 (stereo unspecified), the Potency was active: 25.1 µM.
CN(C(=O)CSc1nc2cc(Cl)ccc2c(=O)n1Cc1ccco1)C1CCS(=O)(=O)C1 (stereo unspecified) was tested, and the Potency was inconclusive [inhibitor, single point].
With CC(C)(C)C1CCc2c(sc(NC(=O)c3cccs3)c2C(N)=O)C1 (stereo unspecified) the Potency was inconclusive [inhibitor, single point].
For Oc1cccc(/C=N/NC(=S)Nc2cccnc2)c1O, the Potency was inconclusive [inhibitor, single point].
With COc1ccc(CNC(=S)Nc2cc(OC)ccc2OC)cc1 the Potency was inconclusive [inhibitor, partial curve].
With CCOC(=O)c1sc2nc(C)nc(NCc3cccnc3)c2c1C the Potency was inconclusive [inhibitor, partial curve].
In the case of O=C(Oc1ccc(N(Cc2cccs2)C2=NS(=O)(=O)c3ccccc32)cc1)c1ccccc1F, the Potency is reported as inconclusive [inhibitor, single point].
In the case of COCCn1c(-c2ccc(Br)cc2)csc1=Nc1cccnc1, the Potency is reported as inconclusive [inhibitor, single point].
COc1ccccc1N1CCN(C(=O)CSc2nnc(NC(=O)c3ccco3)s2)CC1 was tested, and the Potency was “inactive”.
For CNS(=O)(=O)c1cccc(C(=O)OCC(=O)c2cc(C)n(-c3ccc4c(c3)OCO4)c2C)c1, the Potency was inconclusive [inhibitor, single point].
Cc1ccc(NC(=O)Cc2cc(C(=O)O)c3ccccc3n2)c(C)c1 was tested, and the Potency was “inactive”.
For CCN(C)c1ccc(/C=N\n2nnnc2N)cc1, the Potency was inconclusive [inhibitor, partial curve].
In the case of CC(=O)Nc1cccc(NC(=S)Nc2ccc(F)c(Cl)c2)c1, the Potency is reported as inconclusive [inhibitor, single point].
For Cc1ccoc1C(=O)N1CCCC(CCC(=O)N2CCN(c3ccccn3)CC2)C1 (stereo unspecified), the Potency was inconclusive [inhibitor, single point].
CN(C)C/C(Cl)=C(\Cl)c1ccccc1 was tested, and the Potency was active: 7.08 µM.
For COc1cccc(NC2=C(C#N)C(=O)NC(c3cccc(OC)c3O)S2)c1 (stereo unspecified), the Potency was inconclusive [inhibitor, single point].
Cc1ccc(C2c3sc(=O)[nH]c3SC3C(=O)NC(=O)C32)cc1 (stereo unspecified) was tested, and the Potency was inconclusive [inhibitor, single point].
